# From the supplement of paper PMC8728848
# The other results are listed elsewhere or left out.
# Columns and labels:
# Experiment in all cases: glycan array binding signal (z-score within array); higher = stronger binding
# Conditions in all cases: glycan notation: IUPAC condensed, linker removed
# [1] = target: Fuc(a1-2)[GalNAc(a1-4)]Gal(b1-4)GlcNAc
# Outline: (§1)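 Glycan array binding is given as a within-array Z-score, which can be read as non-binding when negative. The arrays, 3228 of them, came from the Consortium for Functional Glycomics database and were retained only where the protein sequence was available. Z-scores were averaged across arrays of the same protein sequence at different concentrations or buffers and across linkers.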
# [2] = target: Fuc(a1-2)[GalNAc(b1-3)]Gal
# Outline: as §1
# Fuc(a1-3)GlcNAc = target: Fuc(a1-3)GlcNAc
# Outline: as §1
# [3] = target: Fuc(a1-3)[Gal(b1-4)]Glc6S
# Outline: as §1
# [4] = target: Fuc(a1-3)[Gal(b1-4)]GlcNAc
# Outline: as §1
# [5] = target: Fuc(a1-3)[Gal(b1-4)]GlcNAc(b1-2)Man
# Outline: as §1
# [6] = target: Fuc(a1-3)[Gal(b1-4)]GlcNAc(b1-2)Man(a1-3)[Fuc(a1-3)[Gal(b1-4)]GlcNAc(b1-2)Man(a1-6)]Man(b1-4)GlcNAc(b1-4)GlcNAc
# Outline: as §1
# [7] = target: Fuc(a1-3)[Gal(b1-4)]GlcNAc(b1-2)Man(a1-3)[Fuc(a1-3)[Gal(b1-4)]GlcNAc(b1-2)Man(a1-6)]Man(b1-4)GlcNAc(b1-4)[Fuc(a1-6)]GlcNAc
# Outline: as §1
# [8] = target: Fuc(a1-3)[Gal(b1-4)]GlcNAc(b1-3)Gal(b1-3)[Fuc(a1-4)]GlcNAc
# Outline: as §1
# [9] = target: Fuc(a1-3)[Gal(b1-4)]GlcNAc(b1-3)Gal(b1-4)[Fuc(a1-3)]GlcNAc
# Outline: as §1
# [10] = target: Fuc(a1-3)[Gal(b1-4)]GlcNAc(b1-3)Gal(b1-4)[Fuc(a1-3)]GlcNAc(b1-3)Gal(b1-4)[Fuc(a1-3)]GlcNAc
# Outline: as §1
# [11] = target: Fuc(a1-3)[Gal(b1-4)]GlcNAc(b1-3)GalNAc
# Outline: as §1
# [12] = target: Fuc(a1-3)[Gal(b1-4)]GlcNAc(b1-4)Gal(b1-4)[Fuc(a1-3)]GlcNAc
# Outline: as §1
# [13] = target: Fuc(a1-3)[Gal(b1-4)]GlcNAc(b1-4)Gal(b1-4)[Fuc(a1-3)]GlcNAc(b1-4)Gal(b1-4)[Fuc(a1-3)]GlcNAc
# Outline: as §1
# [14] = target: Fuc(a1-3)[Gal(b1-4)]GlcNAc(b1-6)GalNAc
# Outline: as §1
# [15] = target: Fuc(a1-3)[Gal(b1-4)]GlcNAc(b1-6)[Gal(b1-3)GlcNAc(b1-3)]Gal(b1-4)Glc
# Outline: as §1
# [16] = target: Fuc(a1-3)[Gal(b1-4)]GlcNAc6S
# Outline: as §1
# [17] = target: Fuc(a1-3)[Gal3S(b1-4)]Glc
# Outline: as §1
# [18] = target: Fuc(a1-3)[Gal3S(b1-4)]GlcNAc
# Outline: as §1
# [19] = target: Fuc(a1-3)[Gal3S(b1-4)]GlcNAc6S
# Outline: as §1
# [20] = target: Fuc(a1-3)[GalNAc(b1-4)]GlcNAc
# Outline: as §1
# [21] = target: Fuc(a1-3)[GalNAc(b1-4)]GlcNAc6S
# Outline: as §1
# Fuc(a1-4)GlcNAc = target: Fuc(a1-4)GlcNAc
# Outline: as §1
# Fuc(b1-3)GlcNAc = target: Fuc(b1-3)GlcNAc
# Outline: as §1
# Gal(a1-2)Gal = target: Gal(a1-2)Gal
# Outline: as §1
# Gal(a1-3)Gal = target: Gal(a1-3)Gal
# Outline: as §1
# Gal(a1-3)Gal(b1-3)GlcNAc = target: Gal(a1-3)Gal(b1-3)GlcNAc
# Outline: as §1
# [22] = target: Gal(a1-3)Gal(b1-3)GlcNAc(b1-2)Man
# Outline: as §1
# [23] = target: Gal(a1-3)Gal(b1-3)GlcNAc(b1-2)Man(a1-3)[Gal(a1-3)Gal(b1-3)GlcNAc(b1-2)Man(a1-6)]Man(b1-4)GlcNAc(b1-4)GlcNAc
# Outline: as §1
# [24] = target: Gal(a1-3)Gal(b1-3)GlcNAc(b1-3)GalNAc
# Outline: as §1
# [25] = target: Gal(a1-3)Gal(b1-3)GlcNAc(b1-6)GalNAc
# Outline: as §1
# [26] = target: Gal(a1-3)Gal(b1-3)[Fuc(a1-4)]GlcNAc(b1-2)Man(a1-3)[Gal(a1-3)Gal(b1-3)[Fuc(a1-4)]GlcNAc(b1-2)Man(a1-6)]Man(b1-4)GlcNAc(b1-4)GlcNAc
# Outline: as §1
# Gal(a1-3)Gal(b1-4)Glc = target: Gal(a1-3)Gal(b1-4)Glc
# Outline: as §1
# Gal(a1-3)Gal(b1-4)GlcNAc = target: Gal(a1-3)Gal(b1-4)GlcNAc
# Outline: as §1
# [27] = target: Gal(a1-3)Gal(b1-4)GlcNAc(b1-2)Man
# Outline: as §1
# [28] = target: Gal(a1-3)Gal(b1-4)GlcNAc(b1-2)Man(a1-3)[Gal(a1-3)Gal(b1-4)GlcNAc(b1-2)Man(a1-6)]Man(b1-4)GlcNAc(b1-4)GlcNAc
# Outline: as §1
# [29] = target: Gal(a1-3)Gal(b1-4)GlcNAc(b1-3)GalNAc
# Outline: as §1
# [30] = target: Gal(a1-3)Gal(b1-4)GlcNAc(b1-6)GalNAc
# Outline: as §1
# [31] = target: Gal(a1-3)Gal(b1-4)[Fuc(a1-3)]GlcNAc
# Outline: as §1
# [32] = target: Gal(a1-3)Gal(b1-4)[Fuc(a1-3)]GlcNAc(b1-2)Man(a1-3)[Gal(a1-3)Gal(b1-4)[Fuc(a1-3)]GlcNAc(b1-2)Man(a1-6)]Man(b1-4)GlcNAc(b1-4)GlcNAc
# Outline: as §1
# Gal(a1-3)GalNAc = target: Gal(a1-3)GalNAc
# Outline: as §1
# [33] = target: Gal(a1-3)[Gal(a1-4)]Gal(b1-4)GlcNAc
# Outline: as §1
# [34] = target: Gal(a1-4)Gal(b1-3)GlcNAc(b1-2)Man(a1-3)[Gal(a1-4)Gal(b1-3)GlcNAc(b1-2)Man(a1-6)]Man(b1-4)GlcNAc(b1-4)GlcNAc
# Outline: as §1
# Gal(a1-4)Gal(b1-4)Glc = target: Gal(a1-4)Gal(b1-4)Glc
# Outline: as §1
# Gal(a1-4)Gal(b1-4)GlcNAc = target: Gal(a1-4)Gal(b1-4)GlcNAc
# Outline: as §1
binder,measurement,setting,value
"ABA (Agaricus bisporus), Q00022 (protein) MTYTISIRVYQTTPKGFFRPVERTNWKYANGGTWDEVRGEYVLTMGGSGTSGSLRFVSSDTDESFVATFGVHNYKRWCDIVTNLTNEQTALVINQEYYGVPIRDQARENQLTSYNVANAKGRRFAIEYTVTEGDNLKANLIIG",glycan array binding signal (z-score),[1],-0.269
same,glycan array binding signal (z-score),[2],-0.26
same,glycan array binding signal (z-score),Fuc(a1-3)GlcNAc,-0.267
same,glycan array binding signal (z-score),[3],-0.094
same,glycan array binding signal (z-score),[4],-0.227
same,glycan array binding signal (z-score),[5],-0.161
same,glycan array binding signal (z-score),[6],-0.176
same,glycan array binding signal (z-score),[7],-0.234
same,glycan array binding signal (z-score),[8],-0.058
same,glycan array binding signal (z-score),[9],-0.223
same,glycan array binding signal (z-score),[10],-0.281
same,glycan array binding signal (z-score),[11],-0.197
same,glycan array binding signal (z-score),[12],-0.164
same,glycan array binding signal (z-score),[13],-0.186
same,glycan array binding signal (z-score),[14],-0.164
same,glycan array binding signal (z-score),[15],-0.257
same,glycan array binding signal (z-score),[16],-0.232
same,glycan array binding signal (z-score),[17],-0.246
same,glycan array binding signal (z-score),[18],0.098
same,glycan array binding signal (z-score),[19],-0.286
same,glycan array binding signal (z-score),[20],-0.206
same,glycan array binding signal (z-score),[21],-0.295
same,glycan array binding signal (z-score),Fuc(a1-4)GlcNAc,-0.283
same,glycan array binding signal (z-score),Fuc(b1-3)GlcNAc,-0.235
same,glycan array binding signal (z-score),Gal(a1-2)Gal,-0.211
same,glycan array binding signal (z-score),Gal(a1-3)Gal,-0.183
same,glycan array binding signal (z-score),Gal(a1-3)Gal(b1-3)GlcNAc,-0.192
same,glycan array binding signal (z-score),[22],-0.236
same,glycan array binding signal (z-score),[23],-0.046
same,glycan array binding signal (z-score),[24],-0.189
same,glycan array binding signal (z-score),[25],-0.206
same,glycan array binding signal (z-score),[26],0.344
same,glycan array binding signal (z-score),Gal(a1-3)Gal(b1-4)Glc,-0.202
same,glycan array binding signal (z-score),Gal(a1-3)Gal(b1-4)GlcNAc,-0.212
same,glycan array binding signal (z-score),[27],-0.227
same,glycan array binding signal (z-score),[28],-0.189
same,glycan array binding signal (z-score),[29],-0.227
same,glycan array binding signal (z-score),[30],-0.239
same,glycan array binding signal (z-score),[31],-0.206
same,glycan array binding signal (z-score),[32],-0.213
same,glycan array binding signal (z-score),Gal(a1-3)GalNAc,-0.118
same,glycan array binding signal (z-score),[33],-0.28
same,glycan array binding signal (z-score),[34],-0.216
same,glycan array binding signal (z-score),Gal(a1-4)Gal(b1-4)Glc,-0.198
same,glycan array binding signal (z-score),Gal(a1-4)Gal(b1-4)GlcNAc,-0.199
